Measured values as given in the supplement of paper PMC11417369.
± gives the standard deviation of the averaged measurements. Some of the results follow.

tested on: PfAP2-I AP2 domain 3 (GST-tagged); assay: gcPBM binding intensity (ln(normalized median fluorescence intensity)); higher = stronger DNA binding
Procedure, shortened: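 In this array assay, P. falciparum DNA-binding domains with a GST tag, expressed in E. coli, were applied for 1 h to primer-extended double-stranded 36-bp intergenic genomic probes and negative controls on an Agilent 4 × 180k array. Bound protein was visualised with Alexa488 anti-GST antibody at 488 nm. Binding intensity is the highest Masliner-normalised natural-log median intensity across replicate spots of either probe orientation.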

| Sequence | gcPBM binding intensity (ln) |
| --- | --- |
| AATGAATAAATAAACACACACACATATATATATATG [CACACA_site18] | 7.92 ± 0.47 |
| TATACGTATACCTATACACACATATATATATATATA [CACACA_site1273] | 9.3 ± 0.49 |
| TATATTCAAAAAAATTCATTTCTGATTTTTTTTTTT [CACACA_negctrl_site1085] | 7.11 ± 0.46 |
| TAAAATAAAAATATAGTGCACAGATTTTGATATTTT [GTGCAC_site9696] | 11.2 ± 0.23 |
| CTTTGTGGTATAGATACACACTATATTAAGATGAAC [CACACA_site5215] | 7.67 ± 0.6 |
| CACATTATGTATCATACACACAAATAGATATATAAC [CACACA_site6434] | 7.82 ± 0.59 |
| TGAAGGTTTCAAAAACGTACAAAAAAAAATGTTAGT [XGTACX_site8803] | 7.93 ± 0.83 |
| TTTAGAAATAAATACACACATACATTTTTGTATACA [CACACA_site718] | 7.48 ± 0.33 |
| TTTTTTTTTTATGGTACACACACGCGTATGGTTGCA [CACACA_site1876] | 8.18 ± 0.65 |
| ATAATAAATGATAGCACACATATGTACATAAATACA [CACACA_site4634] | 8.22 ± 0.36 |
| TATCTTAACAATTAGTGTACAGATAACCAATTAAAA [XGTACX_site3184] | 7.72 ± 0.45 |
| AACATATAAAAATGTGCACACACACCCATATATATA [CACACA_site1525] | 9.665 ± 0.007 |
| TTAATCCTTTTTAAAAGTACACATATATATATATAT [XGTACX_site962] | 9.38 ± 0.3 |
| TATATATATATATAATGTACAGAAAAAAAAAAAAAA [XGTACX_site6141] | 9.4 ± 0.15 |
| ATATTATATATTTGATGTACATTGAATGAGAGAGAA [XGTACX_site3324] | 8.43 ± 0.28 |
| AAATCATGTTGAAGGGGTACAAAATATGTAATGTTG [XGTACX_site6222] | 7.95 ± 0.53 |
| AAATAGAGAAATACAAGTACATACTAAACCAATCTA [XGTACX_site2780] | 7.62 ± 0.54 |
| TATAATGTTGATAATAGTACGTATGAGTTCAAAAAA [XGTACX_site988] | 7.93 ± 0.61 |
| CAAATCAAAATTAATTAACACACAATTTTAATATTC [CACACA_site8641] | 7.54 ± 0.49 |

| Sequence | gcPBM binding intensity (ln) |
| --- | --- |
| TTCTTTGTAGTATATTAACACACAACTGTTTATAAT [CACACA_site9305] | 8.02 ± 0.59 |
| AAAGGATATAATACCATACACACATTTATAAAATAA [CACACA_site1931] | 7.77 ± 0.54 |
| AAAAGAAAATATATGTGTACTAAAATATATATATAT [XGTACX_site3817] | 9.455 ± 0.021 |
| ACTTTTATTCGCTTACGTACATATATTATATATTAT [XGTACX_site4459] | 8.75 ± 0.55 |
| GTTTATTAAACATTAGTGCAATTTTAATCCATTCTA | 9.36 ± 0.085 |
| TACCTACACTTTTGGAGTACAATTAAAAAAAAAAAA [XGTACX_site1403] | 8.04 ± 0.7 |
| TTTAAAGTAATAAAGTGTACAAAAATAAATTCAGCT [XGTACX_site8651] | 8.29 ± 0.59 |
| ATATATATATATAACTGTACTTATATATACATTTTA [XGTACX_site8605] | 9.22 ± 0.11 |
| ATATATATATATATATGTACATATATATATAATTTT [XGTACX_site4146] | 9.43 ± 0.64 |
| TAAATAAATAAAAAAACACACATATATATATATATA [CACACA_site4029] | 9.63 ± 0.59 |
| ATCAAGCACCAACACACACACACACCCCCACCCACA [CACACA_site370] | 9.23 ± 0.15 |
| TTTTATCACATTATTGCACACACATAAAGAAAAAAA [CACACA_site8922] | 10 ± 0.48 |
| AATAATATAGATTGTACACACAAAATGGGAAAAAAA [CACACA_site1886] | 8.19 ± 0.67 |
| ATAAATGGAAACAAAAGTACTAAAAAAAAAAAATAA [XGTACX_site1510] | 7.67 ± 0.71 |
| ATTATGTATATAAATTAACACACATATGTGGTTAAT [CACACA_site9028] | 7.76 ± 0.49 |
| ACGGGTCAATATATGCGTACTTATTTAAATAATTAA [XGTACX_site1518] | 7.92 ± 0.3 |
| TATATATGTATGTATTGTACAATTAAAAATATGTAT [XGTACX_site3990] | 7.88 ± 0.53 |
| AAAAAAAAAAAAGATACACACAAAAATGAATATATA [CACACA_site2099] | 7.46 ± 0.34 |
| ATAAAATATTAATTTTAAATTAATCAATATATATAA [GTGCAC_negctrl_site474] | 7.41 ± 0.42 |

| Sequence | gcPBM binding intensity (ln) |
| --- | --- |
| ATTAATATTCTATATGCATGTGAACCATGGTATATA [TGCATGCA_site430] | 7.7 ± 0.69 |
| ATATATATATATATATGTACTTATTTATCGTATTAT [XGTACX_site3520] | 9.32 ± 0.27 |
| TCATATCTTTTGAGCACACATATATATATATAAAGG [CACACA_site3338] | 8.44 ± 0.21 |
| ATTTTTTCTTATAATGCATGTAGAAAACCGTACAGC [TGCATGCA_site57] | 8.12 ± 0.6 |
| AGGCTCAAATCTAGGTGTACCATTATCGTTGTATCT [XGTACX_site4730] | 7.64 ± 0.58 |
| TATGTGTTTATTTGGTGTACATACTAATAAATATAC [XGTACX_site1682] | 8.26 ± 0.14 |
| CCTAAATTATATTATGCACACTTAAAAATATATTTA [CACACA_site5861] | 10.2 ± 0.73 |
| ATATAATAAAATGACACACGCATATATATATATATA [CACACA_site2789] | 9.44 ± 0.42 |
| TTTCTTTTTAAATATATACACACCGTGGGTACATAT [CACACA_site9102] | 7.92 ± 0.49 |
| TTATATTTATTTATTTGTACATATTTTTTTTTATAT [XGTACX_site1669] | 7.76 ± 0.16 |
| ATACTAAAAAGTATCTGTACTTATTTTAAAAATAAA [XGTACX_site4116] | 7.82 ± 0.21 |
| TAAAAAATGAAAAAGCGTACATGTTTTCTTATATTA [XGTACX_site1722] | 7.65 ± 0.41 |
| TTTTCTAAAATGAATTGTACTTGATTATTTAAAAAA [XGTACX_site6097] | 7.53 ± 0.28 |
| TGTATCATAAAAATAACACACGTATTTTTTTTTATT [CACACA_site1050] | 7.67 ± 0.61 |
| TATTTACTTATATGCACACATAAATGTGAATTATGG [CACACA_site3777] | 9.39 ± 0.3 |
| TAAATAATTAAAATATGTACTGAAATGTAATTATTT [XGTACX_site5894] | 7.81 ± 0.4 |
| ATATAAATTTTTTAGAGTACTAAAATAAAATAATAT [XGTACX_site2118] | 7.79 ± 0.4 |
| TTATTTATATATTCATGTACATAACATTTCATTCGA [XGTACX_site4388] | 7.89 ± 0.33 |
| TTTTAAGAATAAAATTGTACACATACATGTGTTCGC [XGTACX_site438] | 7.58 ± 0.59 |
